Experimental data from publication PMC9574860, “Chemical Toolkit for PARK7: Potent, Selective, and High-Throughput” (Journal of Medicinal Chemistry, 2022).
Among all 7,900 compounds or so, about 400 (5.1%) showed an effect of 50% or more. The list shows a part of the results.

target: Parkinson's disease protein 7 (PARK7/DJ1) (human, UniProt Q99497); assay: primary screen, percent inhibition; read as competition with a fluorescent probe by fluorescence polarization; higher = more effect of the substance; details: 100 µM
Sequence (Q99497 whole entry, looked up, the tested form may be a part): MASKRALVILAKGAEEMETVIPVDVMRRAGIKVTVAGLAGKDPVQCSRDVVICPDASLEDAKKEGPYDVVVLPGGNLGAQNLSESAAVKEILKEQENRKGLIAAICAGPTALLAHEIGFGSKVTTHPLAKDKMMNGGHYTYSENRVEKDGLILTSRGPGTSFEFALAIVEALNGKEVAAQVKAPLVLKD
Procedure, shortened: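 Fluorescence-polarization probe displacement (JYQ-107, 20 nM final, 2 h) after 2 h preincubation of PARK7 (0.2 μM final) with each fragment at 100 μM final. Read-out ex/em 480/520 nm; remaining activity derived from FP signal loss relative to reference controls.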

| SMILES | Inhibition % [%] |
| --- | --- |
| CN1CCOC(CCl)C1 (stereo not shown) | 2.67 |
| O=C(O)CN1C(=O)CSC1=O | 17.6 |
| Cc1cnn(-c2cccc(B(O)O)c2)c1 | 9.73 |
| O=C(CCCl)NC1CCCc2ccccc21 (stereo not shown) | 2.39 |
| N#Cc1cccc(CN2C(=O)CSC2=O)c1 | 23.4 |
| O=C(CCl)Nc1ccccc1C(=O)Nc1ccc(F)cc1 | 6.28 |
| C=CC(=O)N1CSCC1C(=O)N(C)C(C)C (stereo not shown) | 0.15 |
| C=CC(=O)NCC1CCCCC1(F)F (stereo not shown) | 11.8 |
| C=CC(=O)N1CC(c2ccccc2)CC1C (stereo not shown) | 5.39 |
| Nc1ccc(OC2CC(=O)N2)cc1 (stereo not shown) | 9.08 |
| CC1(C)OB(c2cncc(NS(=O)(=O)c3ccccc3)c2)OC1(C)C | 8.59 |
| Cl.Cl.N#Cc1cc(CN)ccn1 | 4.13 |
| COc1cc(OC)cc(B(O)O)c1 | 4.31 |
| COC(=O)c1ccccc1CS(=O)(=O)F | 7.86 |
| CC(C)C1CCCN(c2nccnc2C#N)CC1 (stereo not shown) | 1.71 |
| O=C(CCl)Nc1cc(C2CC2)nn1-c1ccccc1 | 18.1 |
| O=C(CCl)Nc1ccc(S(=O)(=O)N2CCOCC2)cc1 | 87.4 |
| CN1C(=O)CCc2cc(C(=O)CCl)ccc21 | 19.5 |
| CN(Cc1cc[nH]n1)C(=O)c1cc(S(=O)(=O)F)c[nH]1 | 10.5 |
| Cc1cn2c(C#N)c(C)nc2s1 | 7.34 |
| CC1(C)OB(c2cncc3sccc23)OC1(C)C | 31.3 |
| C=CC(=O)N1CCSC(C)C1 (stereo not shown) | 4.98 |
| Cc1cc(Oc2nccnc2C#N)ccc1Cl | 4.22 |
| N#CN(CC1CCOC1)c1cccc(F)c1 (stereo not shown) | 6.11 |
| O=C(NC1CCCC(C(F)(F)F)C1)c1cccnc1S (stereo not shown) | 9.82 |
| Cc1cc(C)cc(OCC2CO2)c1 (stereo not shown) | 9.13 |

| SMILES | Inhibition % [%] |
| --- | --- |
| C=CC(=O)N1CCC(NC(=O)CC(F)(F)F)C1 (stereo not shown) | 10.4 |
| C=C(C)COCCn1c(S)nc2ccccc2c1=O | 3.97 |
| CCCNC(=O)C(C#N)=Cc1ccns1 | 7.03 |
| COc1ccc(C(=O)CCl)cc1F | 91.7 |
| COc1ccc(C(=O)NNC(=O)CCl)cc1 | -3.11 |
| CCc1ccc(C(=O)Cn2cnc(C#N)n2)s1 | 6.2 |
| C=CC(=O)N1CCC2(CC1)CCN(C(=O)C=C)C2 | -0.998 |
| Cn1cc(C=C(C#N)C(=O)NCc2ccccc2)cn1 | 6.12 |
| O=C(C=Cc1ccccc1)c1ccc(S(=O)(=O)F)cc1 | 10.9 |
| C=CC(=O)N1CCN(C)C(=O)C1C (stereo not shown) | 7.81 |
| CN(C)C(=O)Sc1ccc(N)cc1.Cl | 8.03 |
| Cc1cc(NC(=O)Oc2ccccc2)no1 | 5.25 |
| COc1ccc(NC(=O)NC(=O)CCl)cc1 | 1.55 |
| COc1ccc(C)cc1S(=O)(=O)n1ccnc1C(C)C | 7.25 |
| CN(C)C(=O)CN(C)S(=O)(=O)C=Cc1ccccc1 | 11.8 |
| CCN(CC)C(=O)Oc1ccccc1NC(C)=O | 7.53 |
| C=CC(=O)Nc1cc(C)c2nccn2c1 | 24.8 |
| N#Cc1ccc(NC(=O)CCCl)cc1 | 9.81 |
| C=CC(=O)N(C)CC1OCCc2sccc21 (stereo not shown) | 5.36 |
| C=CC(=O)N1CCCN(C)c2ccccc21 | 8.44 |
| C=CC(=O)N1CCC2(CCCCC2)C1 | 8.62 |
| CC(C)C1NC(=O)C12CCCCCC2 (stereo not shown) | 9.56 |
| O=C(CCl)N1CCCCCC1 | 14.9 |
| O=C(CCl)Nc1cccc(Cl)c1Cl | 29.1 |
| O=C(CCl)Nc1cc(C(F)(F)F)ccc1N1CCCCC1 | -3.88 |
| CCc1cccnc1C#N | 7.82 |

| SMILES | Inhibition % [%] |
| --- | --- |
| C=CC(=O)N1CCC(c2nccs2)CC1 | 2.06 |
| N#Cc1cnc(N)cn1 | 19.9 |
| CC1CCN(CN2C(=O)CC2(C)C)CC1 | 5.57 |
| C=CC(=O)N1CCCCC1CS(C)(=O)=O (stereo not shown) | 5.69 |
| CC1(C)COc2ccc(B3OC(C)(C)C(C)(C)O3)cc21 | 7.43 |
| O=C(CCl)NCC1CCOC1 (stereo not shown) | 8.14 |
| C#Cc1cccc(NC(=O)CCl)c1 | 33.9 |
| CC1CC(N2CC=C(c3ccc(O)cc3)CC2)C(=O)O1 (stereo not shown) | 10.6 |
| C=CC(=O)N1CCN(c2cnn(C)c2)CC1 | 34 |
| Cn1cc(CNc2ccc(C#N)nc2)c(C(F)(F)F)n1 | 7.19 |
| O=C(CCl)N1CCNCC1.O=C(O)C(F)(F)F | 7.16 |
| CC1(C)OB(c2ccc3nonc3c2)OC1(C)C | 1.74 |
| CC1(C)OB(c2ccc(O)cc2)OC1(C)C | 3.03 |
| N#Cc1ncn(CC(=O)NCCc2cccs2)n1 | 3.59 |
| C=CCNC(=O)C(C#N)=Cc1ccc(C)o1 | 6.3 |
| O=C1CCc2cc(OCCCl)ccc2N1 | 6.21 |
| COCc1nc(C#N)c(-c2ccccc2)s1 | 7.01 |
| COCCn1c(S)nc2ccccc2c1=O | 4.25 |
| COCCCOc1ccc(B2OC(C)(C)C(C)(C)O2)cc1 | 4.04 |
| Cc1cccc(B2OC(C)(C)C(C)(C)O2)c1Br | 3.4 |
| Cl.ClCCN1CC2CCC(C1)O2 | 3.05 |
| Cc1cscc1NS(=O)(=O)c1cccc(S(=O)(=O)F)c1 | 98.1 |
| CC(C)CN1CCN(c2oc(C3CC3)nc2C#N)CC1 | 6.47 |
| C=CC(=O)NCc1ccc(-n2cccn2)cc1 | 4.01 |
| O=C(CCCl)Nc1ccccn1 | 8.88 |
| CC1(C)OB(c2ccnc3cc(Cl)ccc23)OC1(C)C | 3.03 |

| SMILES | Inhibition % [%] |
| --- | --- |
| CC1(C)OB(c2ccc(C(F)(F)F)c(C#N)c2)OC1(C)C | 4.29 |
| Cc1cccc(N2C(=O)CN=C2S)c1C | 7.8 |
| Cc1ccc(C=C(C#N)C(N)=S)s1 | 12 |
| O=c1c2ccccc2ncn1CCS(=O)(=O)F | 14.1 |
| C=CC(=O)N(Cc1ccccc1)C1C=CS(=O)(=O)C1 (stereo not shown) | 16 |
| N#Cc1ncoc1NCCc1ccccc1 | 6.75 |
| COc1cc2c(B3OC(C)(C)C(C)(C)O3)cn(C)c2cn1 | 6.59 |
| OB(O)c1ccccc1C1CCC1 | 5.99 |
| CCc1nccn1S(=O)(=O)c1ccc(Cl)c(Cl)c1 | 8.82 |
| Cc1occc1Sc1nccnc1C#N | 7.12 |
| COc1ccc(CN(C)C(=O)c2cccnc2S)cc1O | 19.7 |
| CC1(C)OB(c2cccc(CN)c2)OC1(C)C.Cl | 2.79 |
| C=CC(=O)Nc1ccccc1C(=O)OC | 7.6 |
| CCc1nc(C)cn1S(=O)(=O)c1cc(Cl)ccc1OC | 5.69 |
| N#Cc1nc(Cl)ccc1C(F)(F)F | 5.75 |
| COc1ccc2[nH]c(CCCCl)nc2n1.Cl | 23.2 |
| O=C1CN(C(=O)C=Cc2c(Cl)nc3sccn23)CCN1 | 10.3 |
| O=C(CCl)Nc1ccc(N2CCc3ccccc32)cc1 | 6.97 |
| Sc1ccc2ccccc2n1 | 14.2 |
| COC(=O)c1cccc(F)c1B1OC(C)(C)C(C)(C)O1 | 4.22 |
| N#Cc1nc(Cc2ccccc2)oc1N1CCCC1 | 0.891 |
| O=C1SCCN1CC(=O)N1CCCCc2ccccc21 | 4.59 |
| COc1cccc2cc(C=CC(=O)N3CCOCC3)oc12 | 4.01 |
| C=CC(=O)N1CCCC1c1cn(C)nc1C (stereo not shown) | 8.23 |
| C=CC(=O)N1CCC(CC(C)(C)C)C1 (stereo not shown) | 8.14 |
| O=C(CCl)Nc1ccc(SC(F)F)cc1 | 100 |

| SMILES | Inhibition % [%] |
| --- | --- |
| C=CC(=O)N(CC1CCCO1)C1CCSC1 (stereo not shown) | 10.6 |
| C=CC(=O)Nc1cnn(Cc2nnc3n2CCCC3)c1 | 14.9 |
| Cc1nn(C)c(C)c1C=C(C#N)c1ccccn1 | 10.7 |
| c1csc(COCC2CO2)c1 (stereo not shown) | 0.211 |
| Cc1cc(NS(=O)(=O)C=Cc2ccccc2)ccn1 | 29.4 |
| OB1OCc2cc(Cl)ccc21 | 5.69 |
| C=CC(=O)Nc1cccc2c1OCO2 | 2.99 |
| Cc1c(CCNC(=O)c2cccnc2S)cnn1C | 6.16 |
| N#Cc1ncccc1F | 6.29 |
| CC(=O)Nc1ccc(NC2SC(=O)NC2=O)cc1 (stereo not shown) | 66.6 |
| CN(C(=O)CCl)c1ccc([N+](=O)[O-])cc1 | 93.5 |
| Cn1cc(C=C(C#N)c2ccccn2)cn1 | 6.78 |
| C=CC(=O)NC(C)c1csc(C2CC2)n1 (stereo not shown) | 7.23 |
| CC(O)(CNc1ccc(C#N)nc1)c1ccccc1Cl (stereo not shown) | 7.88 |
| O=C(Nc1ccc(F)cc1)N1CCCC(C2OCCO2)C1 (stereo not shown) | 9.05 |
| Cc1ccc2nc(S)n(C)c(=O)c2c1 | 3.43 |
| CC1(C)OB(c2cnc3[nH]ccc3c2)OC1(C)C | 7.34 |
| COC(=O)c1ccc(B2OC(C)(C)C(C)(C)O2)o1 | 4.29 |
| CN1CCC(NC(=O)CCl)CC1 | 4.68 |
| Cc1cc(NC2CC(C)OC2=O)nn1C (stereo not shown) | 12.3 |
| O=S(=O)(F)CCn1ncc(Cl)c1C1CC1 | 14.9 |
| CC1Oc2ccccc2N(CCn2ccnc2C#N)C1=O (stereo not shown) | 19.7 |
| C=CC(=O)NC1CCCN(S(C)(=O)=O)C1 (stereo not shown) | 5.94 |
